This passage reports binding signal (log2 normalized intensity) results from paper PMC10726135.

This is one part of the list. At the low end of the ranking the order means little. Measured with an extract: partners may take part in the binding.

For this test, the target named is T1, HNF4alpha2 (COS-7 nuclear extract) (UniProt P41235).
T1 sequence: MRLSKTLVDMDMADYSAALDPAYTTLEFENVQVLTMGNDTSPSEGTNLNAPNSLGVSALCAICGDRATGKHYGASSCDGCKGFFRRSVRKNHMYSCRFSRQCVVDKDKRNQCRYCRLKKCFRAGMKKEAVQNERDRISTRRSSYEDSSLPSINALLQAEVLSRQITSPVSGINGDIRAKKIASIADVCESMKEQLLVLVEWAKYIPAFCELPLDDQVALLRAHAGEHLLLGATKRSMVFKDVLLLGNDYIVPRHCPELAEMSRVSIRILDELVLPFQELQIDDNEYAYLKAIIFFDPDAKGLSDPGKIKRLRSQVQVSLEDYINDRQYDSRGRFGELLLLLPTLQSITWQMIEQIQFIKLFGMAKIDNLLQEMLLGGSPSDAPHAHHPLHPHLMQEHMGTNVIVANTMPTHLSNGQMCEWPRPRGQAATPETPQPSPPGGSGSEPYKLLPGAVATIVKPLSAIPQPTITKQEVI
In words: protein-binding microarray. Particulars: COS-7 nuclear extract on double-stranded Agilent 4x180k PBM; binding buffer, salt, pH and temperature not given; high values mean tight binding; double strand, one strand shown; sequences stand for … in …GCCTAGGGAGATTAGAGTATCGGTCGA
On to CTGACTCACGGCAGCTTGTACCCTTCTTTC, for which the binding signal (log2 normalized intensity) was 1.49.

On to ACACTCAGGTCTTTCTGGAGATAACAGTGT, for which the binding signal (log2 normalized intensity) came to 1.62.

Regarding CCCCGCCCCGCGTCCGTGCACCCTTCCTCT, the binding signal (log2 normalized intensity) was determined as 3.84. Turning to GTGATAATGGATGGCAAATAAAGGAACTCT, the binding signal (log2 normalized intensity) is -0.176. Turning to TTTATCCTTTTTTGAAGGTTAAAGTCCATT, the binding signal (log2 normalized intensity) was 7. As for ACAACCTTTGGCCGTGCATGCTTGGACTCT, the binding signal (log2 normalized intensity) amounted to 4.59. Regarding ACGCACTCGCCTCTCCTGTTCCGGTTGGGT, the binding signal (log2 normalized intensity) was 0.435. Turning to TCTCCTGGAAAGGTTCCACTCTGACTAACT, the binding signal (log2 normalized intensity) was -1.15. As to ACAAGGGCATGTAAAGGAGATTATCTAGAC, the binding signal (log2 normalized intensity) is -1.22. Consider GAGACTGCTCGGCATCCCTGCCGTGGCTGG, for which the binding signal (log2 normalized intensity) is -1.13. In the case of CATTCCAGGGTGAAATTCAACAGAACTGTT, the binding signal (log2 normalized intensity) was -1.22.

On to GACCAAAGATCACAGTGAAGGTGAAGAGTG, for which the binding signal (log2 normalized intensity) was -0.69. Regarding GTGTTTGCCCAGCTTGAATCACTCACTGAC, the binding signal (log2 normalized intensity) was -1.16. On to CCACGGAATCCCAGTTCTGATACACTCGCC, for which the binding signal (log2 normalized intensity) was -1.16. In the case of CAAAGTAAACAAAGATACTCTCATCACTTA, the binding signal (log2 normalized intensity) was -1.19. Turning to TCCACTCCGGGCGATCCGGGCTCCGGGCGC, the binding signal (log2 normalized intensity) was -1.22. As to TACATTGAACTTTGAACACCTCTTCTTTCT, the binding signal (log2 normalized intensity) was determined as 4.75. For CTTGGACTGAAGACTGGAACTGGGCTGACT, the binding signal (log2 normalized intensity) is -1.08.

Turning to CTCGGCATCATGCCCTTTGGCCCCCAGAGC, the binding signal (log2 normalized intensity) came out at 6.14. The figure for TTCCTGGATTGTGAAACACAGGACTTGATC is 0.71; for ATATTTGCATAATGGAGCAAAGGTCATCCT it is 6.33; for AAATCTTCAACTGGAGGATAAAGTTCAAGT it is 2.64. As for TGCCCTTCTTGTTAACCTCCTATGATCTTT, the figure is 2.81; as for GGCCTTTCCTGACCCCTCCTCCCCCCGCCG, 5.96. Consider ACTCTCTCAACACTGGCTTCTCTGGCCTAG, for which the binding signal (log2 normalized intensity) was -1.14. Regarding CTGAGGTGCCCTTACATTTTGCTCTTTGTA, the binding signal (log2 normalized intensity) came out at 2.07. Regarding GGACGTGTGTGTTCTGGACTTCTCTGCCCT, the binding signal (log2 normalized intensity) amounted to 2.48.

Turning to TGGAGGCGGTGCCATTCACAGGAATGTTGG, the binding signal (log2 normalized intensity) is -0.759. For the sequence GTGATCAATCAGCAGCAAAGTCCTGGAAGA, the binding signal (log2 normalized intensity) was -0.809. Take AGATAAGAGGTGTCATGGCAATAAACAAAA: the binding signal (log2 normalized intensity) is -1.15. Take AAGTTAAAACAGCAGAGCACGATGAATAGG: the binding signal (log2 normalized intensity) was -1.06. As for TCCTACTTTATCTAAGTAAACTAGTGATGT, the figure is 1.67; as for TCTGTACAGCTCTTGTGCTCTGGACATACC, 0.377; as for AGGCAGGACATCAAAGAACAAGTATCCTGG, -1.18. The figure for AGGAATGTACATAATCTGGACCCAAACGAA is 2.34; for TCTGTTTCTCTGTCTCTCTGCACACACAGA it is -1.17; for CTTCCCTCCACTATTGTCCTATGACCCTGC it is 4.03. In the case of TAATATTTTTGACTTACCATTTGCTGATAA, the binding signal (log2 normalized intensity) was -0.862. GCAGCTCAAGGGTGTTCCTGAGTAAATCTC: the binding signal (log2 normalized intensity) was -1.07. As to TTTGCTGAAGACAGGCCAGGGTGATCAAAC, the binding signal (log2 normalized intensity) amounted to 1.11. For the sequence ACCTTTGACCTGGTACTATGACCTTTCACC, the binding signal (log2 normalized intensity) is 7.01. In the case of TTGCCCCCCTGGGCTCAAGCGATCCTCCCA, the binding signal (log2 normalized intensity) was found to be 4.62. Consider CAGCATAGTCCTGCCACATTTTTATCCTTT, for which the binding signal (log2 normalized intensity) was 1.46. For the sequence ACATTCGTTAACATCAGCTGAGCAGAGAGG, the binding signal (log2 normalized intensity) is -0.891.

For GCTTTGATGTGTGTATCAATGGCCCCAGTG, the binding signal (log2 normalized intensity) amounted to 2.37. Take CTCTTTTAGTAACTGACTTTAACTTCAAAG: the binding signal (log2 normalized intensity) worked out at 0.473. As to TATGTTTCAGCCAAGAGCGGAAAGAAAGGC, the binding signal (log2 normalized intensity) is -1.12.

On to CAGCGCCTCCCGGTCACTACAACAACGGCG, for which the binding signal (log2 normalized intensity) was -0.851.

Take TCTCCAAACCCATATTCCTATCACCATATC: the binding signal (log2 normalized intensity) is 0.861. With GGGCACTGATAACCTGCATTTGAAAGAGGT, the binding signal (log2 normalized intensity) is -1.07. With CCTTGGCTGTGTGACTCACCTTTGCTCTGA, the binding signal (log2 normalized intensity) stood at 3.71.

As to GGGCTCAAGCGATCCTCCCACTTCAGCCTC, the binding signal (log2 normalized intensity) is -1.11. In the case of TCATACCTCTTACCAGATAGATGCTGCTCT, the binding signal (log2 normalized intensity) is -0.953. With ATCACACAACTTTCATTGAACTGCTGGGGG, the binding signal (log2 normalized intensity) was determined as 0.423.

Consider TCGCACCTAAGGGCACCCTTCCTGCTTCCA, for which the binding signal (log2 normalized intensity) is -1.09.

As to TACCCTGGGAATGGAGAGAGAGAGAATAGC, the binding signal (log2 normalized intensity) was -1.24.

Take CAAACACAGATCAGATATGAGATTCCCAGA: the binding signal (log2 normalized intensity) was -1.14. For the sequence GGCGGAGAGCTCCGGGGTCACGCGCGTGTG, the binding signal (log2 normalized intensity) was 1.47. For CTGCAATGACAATAAATTATACCAACTATT, the binding signal (log2 normalized intensity) is -1.06. With ATCCTTACACAGCAGCTTTAGTCAGAGATT, the binding signal (log2 normalized intensity) was -0.896.

For the sequence CAAAAGCTGAGTCCCTGCTTGATAAGACTG, the binding signal (log2 normalized intensity) is -1.06. For the sequence AATTGACCTTTGATCACTCATGGGCAAGAT, the binding signal (log2 normalized intensity) came to 5.65.

Take GAAAGCTGGCTTGGAAAAAGCAGGCAACCA: the binding signal (log2 normalized intensity) is -1.08. GCCAGAACTCAGGGTCTGGTTCCAAAGTCT: the binding signal (log2 normalized intensity) worked out at 3.41.

For the sequence AGTTAGGTTCTGGCACCTGAAGCTGCCCTT, the binding signal (log2 normalized intensity) was 1.73. In the case of TGAACCCTTGGGGCTTTTGCAATTTAAACT, the binding signal (log2 normalized intensity) was 0.0972. Turning to TCTGATTTCCCCGTCCCAAGCTGAGGTCTG, the binding signal (log2 normalized intensity) is 2.8. Turning to GCACCCGGGCAGCCTGTGGCCAGGCTGCGT, the binding signal (log2 normalized intensity) was -1.18. Consider CTGTTAACTTCTTATGCATAGATGTTTAGC, for which the binding signal (log2 normalized intensity) worked out at 0.46.

With TTGGGGCCCACAGAGTCCAGAGGTCACTTT, the binding signal (log2 normalized intensity) turned out to be 5.83.

AAGACCGGTATTTGAGATATTTTTCAGACC: the binding signal (log2 normalized intensity) was -0.611. For the sequence GTTCTTATTTGCTGAGGAAGACTTCATTCA, the binding signal (log2 normalized intensity) was -1.15. With AAACACATGCAATCACACTAATCTGTCAGA, the binding signal (log2 normalized intensity) was -1.17.
